Test results: the supplement of paper PMC4604168 (melanoma cell lines)
This is one part of the list. Repeats are few or missing, and single values can be far off.

Tests used:
Test in all cases: cell count relative to DMSO control; melanoma cells; higher = more viable cells
Conditions in all cases: library dose: low library concentration; 72 h; first compound 0.4 µM
MZ2-MEL = test system: MZ2-MEL
MeWo = test system: MeWo
RPMI7951 = test system: RPMI7951
RVH-421 = test system: RVH-421
SkMel28 = test system: SkMel28
SkMel2 = test system: SkMel2
SkMel30 = test system: SkMel30
UACC62 = test system: UACC62
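Also: cell number obtained by counting DAPI-stained nuclei in high-throughput microscope images with image analysis software, screen run in 1,536-well plates.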

SMILES | cell count (MZ2-MEL) [%] | cell count (MeWo) [%] | cell count (RPMI7951) [%] | cell count (RVH-421) [%] | cell count (SkMel28) [%] | cell count (SkMel2) [%] | cell count (SkMel30) [%] | cell count (UACC62) [%]
Cn1sc(=O)n(Cc2ccccc2)c1=O + CC(=O)c1c(C)c2cnc(Nc3ccc(N4CCNCC4)cn3)nc2n(C2CCCC2)c1=O [palbociclib] (partner dose 0.04 µM) | 88 | 82.2 | 84.1 | 89.8 | 114 | 84.9 | 69.9 | 103
CCCCCCCCCCCCCCCCCCOP(=O)([O-])OC1CC[N+](C)(C)CC1 [Perifosine] + Cn1c(Nc2ccc(C(F)(F)F)cc2)nc2cc(Oc3ccnc(-c4ncc(C(F)(F)F)[nH]4)c3)ccc21 [CHIR265] (partner dose 0.08 µM) | 89.9 | 69.1 | 46.8 | 66.9 | 65.2 | 70.7 | 66.7 | 55.2
CCCCCCCCCCCCCCCCCCOP(=O)([O-])OC1CC[N+](C)(C)CC1 [Perifosine] + O=c1[nH]nc(Sc2ncc([N+](=O)[O-])s2)n1-c1ccc2c(c1)OCCO2 [BI78D3] (partner dose 0.2 µM) | 98 | 107 | 69.7 | 101 | 91.1 | 96.2 | 90.8 | 105
CCCCCCCCCCCCCCCCCCOP(=O)([O-])OC1CC[N+](C)(C)CC1 [Perifosine] + Cn1sc(=O)n(Cc2ccccc2)c1=O [TDZD-8] (partner dose 0.4 µM) | 109 | 89.9 | 73.2 | 91.5 | 75.3 | 102 | 103 | 96.7
CCCCCCCCCCCCCCCCCCOP(=O)([O-])OC1CC[N+](C)(C)CC1 [Perifosine] + Clc1ccc(Nc2nnc(Cc3ccncc3)c3ccccc23)cc1 [vatalanib] (partner dose 2 µM) | 100 | 79.4 | 71.7 | 87.9 | 96.7 | 103 | 122 | 102
CCCCCCCCCCCCCCCCCCOP(=O)([O-])OC1CC[N+](C)(C)CC1 [Perifosine] + NC(=O)c1ccc(N(C(N)=O)c2c(F)cccc2F)nc1-c1ccc(F)cc1F [VX702] (partner dose 0.4 µM) | 98.4 | 89.9 | 75.3 | 114 | 125 | 99.8 | 98.2 | 95.7
CCCCCCCCCCCCCCCCCCOP(=O)([O-])OC1CC[N+](C)(C)CC1 [Perifosine] + Cc1cc(Nc2cc(N3CCN(C)CC3)nc(/C=C/c3ccccc3)n2)n[nH]1 [ENMD2076] (partner dose 0.04 µM) | 108 | 105 | 74.6 | 114 | 90.2 | 99.4 | 110 | 95.2
Cn1sc(=O)n(Cc2ccccc2)c1=O + C[C@]1(c2nc3c(C(N)=O)cccc3[nH]2)CCCN1 [Veliparib] (partner dose 1.4 µM) | 107 | 94.9 | 117 | 89.1 | 86.4 | 95 | 87.6 | 96.9
CCCCCCCCCCCCCCCCCCOP(=O)([O-])OC1CC[N+](C)(C)CC1 [Perifosine] + COc1ccc(C2=N[C@@H](c3ccc(Cl)cc3)[C@@H](c3ccc(Cl)cc3)N2C(=O)N2CCNC(=O)C2)c(OC(C)C)c1 [Nutlin-3] (partner dose 0.1 µM) | 112 | 103 | 85.7 | 104 | 106 | 110 | 104 | 101
CCCCCCCCCCCCCCCCCCOP(=O)([O-])OC1CC[N+](C)(C)CC1 [Perifosine] + O=C(O)c1ccc2c(c1)nc(Nc1cccc(Cl)c1)c1ccncc12 [CX4945] (partner dose 0.4 µM) | 92.6 | 101 | 77 | 91.9 | 105 | 101 | 77.7 | 90.7
CCCCCCCCCCCCCCCCCCOP(=O)([O-])OC1CC[N+](C)(C)CC1 [Perifosine] + CCN(CC)CCNC(=O)c1c(C)[nH]c(/C=C2\C(=O)Nc3ccc(F)cc32)c1C [sunitinib] (partner dose 0.4 µM) | 127 | 102 | 69.6 | 108 | 85 | 113 | 93.4 | 97.3
C[C@@H](N)c1ccc(C(=O)Nc2ccnc3[nH]ccc23)cc1 + CNC(=O)c1cc(Oc2ccc(NC(=O)Nc3ccc(Cl)c(C(F)(F)F)c3)cc2)ccn1 [sorafenib] (partner dose 0.4 µM) | 64.8 | 86.7 | 73.6 | 68.8 | 86.8 | 98.2 | 90.3 | 102
